Results: PubChem BioAssay (NCATS)
The shares of active, inactive and inconclusive entries below differ from those in the screen. Potencies beside an inconclusive call are fits to weak or partial responses and may not hold up. The source made the active and inactive calls. Calls follow the shape of the dose curve; as a rule, active = well fitted cell-killing curve with a large enough effect; inconclusive = small, poorly fitted or top-dose-only effect, or effect the other way; inactive = no such curve, though single readings can be large or run the other way.

Experiment: Viability qHTS for spleen associated tyrosine kinase inhibitor (SYKi) naive MV4-11 cells (AID 1963823); also: nearly all actives have a fitted effect of over 40% in size
Conditions: MV4-11 AML viability, CellTiter-Glo luminescence, 72 h; series mostly up to 45 µM
Summary of the method: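 Seeding of 500 SYKi-naive MV4-11 cells per well onto pre-dispensed compounds preceded a 72 hr incubation at 37 C. Luminescent CellTiter-Glo signal, read after 10 min at room temperature, reflected viable cells.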
Potency is read from the fitted curve at half-maximal effect; tags tell the direction and shape of the fitted curve.

Row | SMILES | Potency
1 | Cn1c(=O)c(F)c(Nc2ccc(I)cc2F)c2c(=O)n(CC(O)CO)cnc21 (stereo not given) | inconclusive: 0.0291 µM [cytotoxic, full curve]
2 | CC(C)=C[C@@H]1[C@H](CO[C@@H]2O[C@H](CO)[C@@H](O)[C@H](O)[C@H]2O)C1(C)C | active: 7.18 µM
3 | CS(=O)(=O)NCC1CCC(Nc2nc3c(s2)CCSc2ccccc2-3)CC1 (stereo not given) | active: 2.31 µM
4 | Cc1ccc(NS(=O)(=O)c2cc3c(cc2N[C@H](C)CO)NC(=O)CC3)cc1C | active: 20.6 µM
5 | CC(C)(C)c1ccc(-c2nc3ccccc3[nH]2)cc1 | inconclusive: 2.52 µM [cytotoxic, full curve]
6 | O=C(CS(=O)Cc1ccco1)NC/C=C\COc1cc(CN2CCCCC2)ccn1 (stereo not given) | inconclusive: 0.841 µM [cytotoxic, full curve, poor fit]
7 | CN(C)CCOc1ccc(-c2nc(-c3ccc4c(c3)CC/C4=N\O)c(-c3ccncc3)[nH]2)cc1 | active: 7.42 µM
8 | C/C=C1\[C@H](OC2OC(COC3OC(CO)C(O)C(O)C3O)C(O)C(O)C2O)OC=C(C(=O)OC)[C@H]1CC(=O)OCCc1ccc(O)cc1 (stereo not given in full) | inactive
9 | CC(C)(C[C@@](O)(Cc1cc2ccncc2[nH]1)C(F)(F)F)c1cc(F)ccc1O | inconclusive: 9.2 µM [cytotoxic, partial curve, poor fit]
10 | COc1ccc(-c2csc(NC(=O)[C@H]3CCCCN3S(=O)(=O)c3ccc(C)cc3)n2)cc1 | inconclusive: 3.66 µM [cytotoxic, full curve]
11 | O=C1NC(=O)/C(=C\c2ccc3c(c2)OC(F)(F)O3)S1 | inconclusive: 23.1 µM [cytotoxic, partial curve]
12 | COc1ccc(Oc2cc(C)c(-c3csc(NC(=O)c4ccncc4)n3)c(C)c2)cc1 | inconclusive: 0.116 µM [cytotoxic, full curve]
13 | COc1cc(N)c(Cl)cc1C(=O)NC1CCN(Cc2ccccc2)CC1 | inconclusive: 0.841 µM [cytotoxic, partial curve, poor fit]
14 | CC1(C)C2CC[C@@]34CC(CC[C@H]3[C@]2(C)CC[C@@H]1O[C@@H]1O[C@H](CO)[C@@H](O)[C@H](O)[C@H]1O)[C@](C)(O)C4 (stereo not given in full) | inconclusive: 1.26 µM [cytotoxic, partial curve]
15 | O=C(NOCCO)c1cc(CN2OCCCC2=O)c(F)c(F)c1Nc1ccc(I)cc1F | inconclusive: 0.082 µM [cytotoxic, full curve]
16 | CC(C)C[C@H](NC(=O)[C@H](Cc1ccccc1)NC(=O)OCc1ccccc1)C(=O)C=O | active: 23.5 µM
17 | CC1(C)C2CC(OC3OC(COC4OCC(O)(CO)C4O)C(O)C(O)C3O)C1(C)CC2O (stereo not given) | inactive
18 | CC1=C[C@@H]2[C@H]3[C@@H]4O[C@@](C)(CC[C@H]4O)[C@H]3CC(=O)[C@]23C(=O)N[C@@H](CC(C)C)[C@@H]3[C@@H]1C | inconclusive: 11.4 µM [cytotoxic, single point]
19 | NC(=S)N/N=C/c1cccnc1 | inactive
20 | C=C(C)[C@@H]1CC[C@]2(C)CC[C@]3(C)C(CCC4[C@@]5(C)CC[C@H](O)C(C)(C)C5CC[C@]43C)C12 (stereo not given in full) | inactive

Row | SMILES | Potency
21 | CC1(C)C(=O)N2c3ccccc3C(O)(CC(C(=O)O)n3cnc4ccccc4c3=O)C2N1O (stereo not given) | inactive
22 | CC1C(O)C(O)C2C(C(=O)OCCc3ccc(O)cc3)=COC(O[C@@H]3O[C@H](CO)[C@@H](O)[C@H](O)[C@H]3O)C12 (stereo not given in full) | inactive
23 | COc1cc(Br)c(S(=O)(=O)Nc2ccc(Cl)c(O[C@@H]3CCN(C)C3)c2)cc1OC | inconclusive: 4.61 µM [cytotoxic, full curve]
24 | O=C(O)C(Cc1ccccc1)NC(=O)C1CCCN1 (stereo not given) | inactive
25 | COc1cc(Nc2nc3c(s2)CCCC3c2ccc(F)cc2)ccc1-n1cnc(C)c1 (stereo not given) | active: 3.66 µM
26 | CCN(CC)Cc1cccc(/C=C/c2nc3ccc(F)cc3c(=O)n2-c2ccccc2Cl)n1 | active: 11.6 µM
27 | COc1ccccc1C(=O)Nc1cc2c(cc1N1CCCCC1)n(C)c(=O)n2C | active: 14.8 µM
28 | COc1cc(NC(=O)Nc2cccc(CNC(=O)O[C@H]3CCOC3)c2)ccc1-c1cnco1 | active: 1.3 µM
29 | Cc1cc(Cn2cnc3c2CC(C(=O)O)N(C(=O)C(c2ccccc2)c2ccccc2)C3)ccc1N(C)C (stereo not given) | inconclusive: 5.17 µM [cytotoxic, partial curve, poor fit]
30 | COC(=O)[C@@H](N)Cc1ccc(O)c(O)c1 | inactive
31 | C/C=C/C=C/C(=O)O[C@@H]1C=C2COC(=O)[C@]2(O)[C@@]2(C)CCCC(C)(C)[C@H]12 | inconclusive: 18 µM [cytotoxic, single point]
32 | COc1ccccc1NC(=O)Nc1ccc2ccccc2c1 | inconclusive: 16.4 µM [cytotoxic, partial curve]
33 | O=C(CCCCc1ccc2ccccc2c1)C(F)(F)F | inactive
34 | Cc1cc(F)ccc1[C@H]1C[C@@H](N2CCN3C(=O)CC[C@H]3C2)CCN1C(=O)N(C)[C@H](C)c1cc(C(F)(F)F)cc(C(F)(F)F)c1 | inconclusive: 9.2 µM [cytotoxic, partial curve]
35 | CC(C)=CCC/C(C)=C/CC/C(C)=C/CC[C@]1(C)CCc2cc(O)cc(C)c2O1 | inconclusive: 12.6 µM [cytotoxic, partial curve, poor fit]
36 | O=c1[nH]cnc2nc[nH]c12 | inconclusive: 0.0841 µM [rising, full curve, poor fit]
37 | C[C@@H]1O[C@@H](OC[C@H]2O[C@@H](Oc3cc(O)cc4c3C(=O)C(O)(Cc3ccc(O)cc3)O4)[C@H](O)[C@@H](O)[C@@H]2O)[C@H](O)[C@H](O)[C@H]1O (stereo not given in full) | inactive
38 | Cc1[nH]c(C)c(Cl)c(=O)c1Cl | inactive
39 | Cc1sc2c(c1C)C(c1ccc(Cl)cc1)=N[C@H](CC(=O)NCCCCNC(=O)COc1cccc3c1C(=O)N([C@H]1CCC(=O)NC1=O)C3=O)c1nnc(C)n1-2 | active: 0.0461 µM
40 | O=C1NC(=O)/C(=C\c2ccc(-c3ccc(F)cc3O)o2)S1 | inconclusive: 13 µM [cytotoxic, partial curve]
